Laboratory results from the supplement of paper PMC4967469.
Lines with a small IC50 respond at low doses; where the fit passes the top or lowest dose, that dose stands as a limit. AUC, from the same fit, is the share of area under the viability curve across the 256-fold dose range; values near 1 show little effect. Where the top dose is marked as inferred, it was calculated from the reported fits.

compound: COc1ncc(-c2ccc3nccc(-c4ccnnc4)c3c2)cc1NS(=O)(=O)c1ccc(F)cc1F [GSK2126458]; test: Viability of human cancer cell lines after 72 h of drug (GDSC screen); details: top dose inferred
Description: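 Human cancer cell lines in 384-well plates, medium with 10% serum, drug for 72 h over a 256-fold dose range (nine 2-fold or five 4-fold steps up to the top dose). Adherent lines were fixed and stained with the nucleic acid dye Syto60, suspension lines read with resazurin; signal relative to control wells, capped at 0 and 100%. One two-parameter sigmoid per drug and line, fitted in a mixed model over all curves with the slope shared within a line.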

Cell Line | AUC | IC50 [nM]
NB69 (neuroblastoma, adherent, top dose 0.128 µM) | 0.279 | 2.06
NB(TU)1-10 (neuroblastoma, adherent, top dose 0.128 µM) | 0.982 | > 128
NB-4 (acute myeloid leukaemia, suspension, top dose 0.128 µM) | 0.376 | 3.9
NCC021 (kidney, adherent, top dose 0.128 µM) | 0.526 | 9.51
NCI-H23 (lung adenocarcinoma, adherent, top dose 0.128 µM) | 0.954 | > 128
NCI-H28 (mesothelioma, adherent, top dose 0.128 µM) | 0.946 | > 128
NCI-H64 (small cell lung carcinoma, suspension, top dose 0.128 µM) | 0.457 | 6.29
NCI-H69 (small cell lung carcinoma, suspension, top dose 0.128 µM) | 0.686 | 28.4
NCI-H82 (small cell lung carcinoma, suspension, top dose 0.128 µM) | 0.975 | > 128
NCI-H187 (small cell lung carcinoma, suspension, top dose 0.128 µM) | 0.814 | 77.6
NCI-H196 (small cell lung carcinoma, adherent, top dose 0.128 µM) | 0.796 | 62.9
NCI-H209 (small cell lung carcinoma, suspension, top dose 0.128 µM) | 0.806 | 70.6
NCI-H211 (small cell lung carcinoma, adherent, top dose 0.128 µM) | 0.753 | 41.7
NCI-H226 (lung squamous cell carcinoma, adherent, top dose 0.128 µM) | 0.863 | 120
NCI-H292 (lung adenocarcinoma, adherent, top dose 0.128 µM) | 0.895 | > 128
NCI-H322M (lung adenocarcinoma, suspension, top dose 0.128 µM) | 0.821 | 97.8
NCI-H345 (small cell lung carcinoma, suspension, top dose 0.128 µM) | 0.957 | > 128
NCI-H358 (lung adenocarcinoma, adherent, top dose 0.128 µM) | 0.576 | 13.2
NCI-H441 (lung adenocarcinoma, adherent, top dose 0.128 µM) | 0.977 | > 128

Cell Line | AUC | IC50 [nM]
NCI-H446 (small cell lung carcinoma, semi-adherent, top dose 0.128 µM) | 0.474 | 6.77
NCI-H460 (large cell lung carcinoma, adherent, top dose 0.128 µM) | 0.986 | > 128
NCI-H510A (small cell lung carcinoma, semi-adherent, top dose 0.128 µM) | 0.954 | > 128
NCI-H520 (lung squamous cell carcinoma, adherent, top dose 0.128 µM) | 0.477 | 6.91
NCI-H522 (lung adenocarcinoma, adherent, top dose 0.128 µM) | 0.938 | > 128
NCI-H524 (small cell lung carcinoma, suspension, top dose 0.128 µM) | 0.769 | 43.5
NCI-H526 (small cell lung carcinoma, suspension, top dose 0.128 µM) | 0.784 | 52
NCI-H596 (lung adenocarcinoma, adherent, top dose 0.128 µM) | 0.522 | 9.34
NCI-H630 (large intestine, adherent, top dose 1.024 µM) | 0.893 | > 1020
NCI-H647 (non-small cell lung carcinoma, adherent, top dose 0.128 µM) | 0.514 | 8.77
NCI-H650 (lung adenocarcinoma, adherent, top dose 0.128 µM) | 0.722 | 36.6
NCI-H661 (large cell lung carcinoma, adherent, top dose 0.128 µM) | 0.803 | 79.5
NCI-H716 (large intestine, suspension, top dose 1.024 µM) | 0.633 | 164
NCI-H720 (lung carcinoid, suspension, top dose 0.128 µM) | 0.987 | > 128
NCI-H727 (lung carcinoid, adherent, top dose 0.128 µM) | 0.778 | 92.7
NCI-H747 (large intestine, adherent, top dose 1.024 µM) | 0.199 | 6.49
NCI-H748 (small cell lung carcinoma, suspension, top dose 0.128 µM) | 0.865 | > 128
NCI-H810 (large cell lung carcinoma, adherent, top dose 0.128 µM) | 0.75 | 40.4
